Data as given in PubChem BioAssay (NCATS).
“And” between values parts separate entries of the source, which are not always exact repeats. Equal values may be shown once. This list was built around the results that the source calls inconclusive (neither active nor inactive); the mix of calls is not that of the screen. For part of these data: Potencies beside an inconclusive call are fits to weak or partial responses and may not hold up. For part of these data: “Side channel” marks fits to a control or component signal instead of the main read-out. The source made the active and inactive calls. Unless noted, calls come from the whole dose curve; as a rule, active = well fitted curve in the direction sought with a large enough effect; inconclusive = small, poorly fitted or top-dose-only effect, or another doubt; inactive = no such curve, though single readings can be large; an effect the other way counts as inactive or inconclusive.

Key:
[1] = Cell Viability - Jurkat (AID 426;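 active = dose-dependent loss of cell ATP signal giving a full or clear fitted curve, ranked by lower potency value; inconclusive = weak partial curve or response only at the top dose; inactive = no loss of viability signal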; note: potency is the fitted concentration of half-maximal effect); details: qHTS
In short: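 Jurkat (clone E6-1, human T-cell leukemia) cells, 5000/well in complete medium, were exposed to compound for 40 hr at 37 °C. Viability was read as intracellular ATP by CellTiter-Glo luminescence; AC50 came from Hill fits of concentration-response data.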

[2] = Cell Viability - Hek293 (AID 427;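 active = compounds whose dose-response curve shows a full or clear partial loss of cell viability, called from curve shape rather than a numeric limit; inconclusive = weak partial curves or an effect only at the top dose; inactive = no dose-dependent loss of viability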;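 note: potency is the fitted concentration of half-maximal effect; cells exposed to compound for 40 hours at 37 °C before reading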); details: qHTS
In short: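 HEK293 cells in complete medium were exposed to compound for 40 hr at 37 °C, then cellular ATP was read by CellTiter-Glo luminescence. Data were normalized to DMSO (basal) and 100 uM tamoxifen (100% inhibition), and AC50 came from Hill fits.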

[3] = Cell Viability - HepG2 (AID 433; calls by dose curve;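 note: potency is the fitted concentration of half-maximal effect; potency for ATP loss meaning cytotoxicity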); details: qHTS
In short: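 Cytotoxicity read as ATP loss (CellTiter-Glo luminescence) after 40 hr compound exposure of HepG2, 1500 cells/well, 37 °C. AC50 by Hill equation; 0% set by DMSO, 100% inhibition by 100 uM tamoxifen.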

[4] = Cell Viability - SK-N-SH (AID 435; calls by dose curve; note: potency is the fitted concentration of half-maximal effect); details: SK-N-SH neuroblastoma cell viability qHTS
In short: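 qHTS cytotoxicity: CellTiter-Glo ATP luminescence after 40 h compound exposure of human neuroblastoma SK-N-SH cells at 37 °C. AC50 derived by Hill-equation fitting, with DMSO as basal and 100 uM tamoxifen as full inhibition.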

[5] = biological target: Mitogen-activated protein kinase 10 (Mus musculus) (UniProt Q61831); test: JNK3 AlphaScreen Assay (AID 530; active = well fitted curve in either direction with a large enough effect, not every such curve was filed as active; inconclusive = small, poorly fitted or top-dose-only effect, or another doubt;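 note: kinase came from lysate of stimulated human HepG2 cells; signal reports phosphorylation of biotinylated GST-cJun 1-79 at Ser73 with 10 µM ATP; potency is the fitted concentration of half-maximal effect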); details: JNK3 lysate, c-Jun phosphorylation; activity change, negative = inhibition: at 57.1 µM (top of the series)
In short: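 qHTS format: compounds tested as titrations against IL-1beta/TNF-alpha-activated HepG2 lysate JNK3 with biotin-GST-cJun substrate and 10 uM ATP at room temperature. Loss of anti-phospho-cJun AlphaScreen signal indicates inhibition.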

[6] = Cell Viability - N2a (AID 540); details: N2a mouse neuroblastoma cell viability; activity change, negative = cytotoxicity: at 92.2 µM (top of the series);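 note: plate controls were DMSO alone for no effect and tamoxifen control for full effect; nearly all actives have a fitted effect of over 45% in size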
In short: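 Mouse neuroblastoma N2a cells (1500/well) were preincubated 5 hr at 37 °C, then exposed to compounds for 40 hr at 37 °C in complete medium. Viability was read as intracellular ATP by CellTiter-Glo luminescence; AC50 from Hill fits.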

[7] = Cell Viability - H-4-II-E (AID 543); details: H-4-II-E rat hepatoma viability; series mostly up to 92.2 µM; note: potency is the fitted concentration of half-maximal effect; nearly all actives have a fitted effect of over 35% in size
In short: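 Rat hepatoma H-4-II-E cells (1500/well) were plated, incubated 5 hr at 37 °C, then exposed to compounds for 40 hr at 37 °C. Cellular ATP was read by CellTiter-Glo luminescence; AC50 came from Hill-equation fits of concentration-response data.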

[8] = MultiTox-Fluor Cytotoxicity Assay - LYMP1-001 - Live Cells (AID 947); details: LYMP1-001 lymphoblastoid cells, live-cell protease fluorescence viability; series mostly up to 92.2 µM;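 note: 0% = DMSO only and full inhibition = tetraoctylammonium bromide control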
[9] = biological target: Peroxisome proliferator-activated receptor gamma (Homo sapiens) (UniProt P37231); test: qHTS assay for small molecule agonists of peroxisome proliferator-activated receptor gamma signaling (AID 588536; active = well fitted curve in the direction sought with a large enough effect in the signal ratio, with a control signal flat, not every such curve was filed as active; inconclusive = small, poorly fitted or top-dose-only effect, or effect the other way, or a change in a side signal; inactive = no such curve, though single readings can be large or run the other way; the % refers to the signal ratio;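 note: 0% = DMSO basal wells and 100% = rosiglitazone at 2 µM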); details: HEK293 PPARg-UAS-bla, beta-lactamase ratio, 16 h; activation: at 76.7 µM (top of the series), percent of rosiglitazone response, DMSO as zero
In short: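 GeneBLAzer PPAR-gamma-UAS-bla HEK293 cells in 1% charcoal/dextran-treated FBS medium were treated 16 h at 37 C with compounds. Beta-lactamase activity was read by CCF4 ratio (460/530 nm). Response was normalized to 2 uM rosiglitazone (100%) and DMSO, then Hill-fitted for EC50 and efficacy.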

[10] = biological target: Peroxisome proliferator-activated receptor gamma (Homo sapiens) (UniProt P37231); test: qHTS assay for small molecule antagonists of peroxisome proliferator-activated receptor gamma signaling (AID 588537; active = well fitted inhibition curve with a large enough effect in the signal ratio, with a control signal flat, not every such curve was filed as active; inconclusive = small, poorly fitted or top-dose-only effect, or effect the other way, or a change in a side signal; the % refers to the signal ratio;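 note: reporter cells co-stimulated with 50 nM rosiglitazone agonist during compound treatment; % of control where 0% means no effect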); details: HEK293 PPARg-UAS-bla, beta-lactamase ratio, antagonist mode; activity, negative = inhibition: at 76.8 µM (top of the series)
In short: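 Step one: plate 3000 HEK293 UAS-bla cells per well in medium with 1% stripped serum and hold 6-6.5 h at 37 C. Step two: add compound and 50 nM agonist for 16 h. Step three: CCF4 loading, fluorescence read.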

[11] = biological target: Thyroid hormone receptor beta (Homo sapiens) (UniProt P10828); test: qHTS assay for small molecule agonists of thyroid hormone receptor beta signaling (AID 588545; calls by dose curve); details: TR-UAS-bla GripTite HEK 293, beta-lactamase ratio, agonist mode, 18 h; activation: at 76.7 µM, percent of T3 response, DMSO as zero
Sequence of UniProt P10828 (P10828 whole entry, looked up): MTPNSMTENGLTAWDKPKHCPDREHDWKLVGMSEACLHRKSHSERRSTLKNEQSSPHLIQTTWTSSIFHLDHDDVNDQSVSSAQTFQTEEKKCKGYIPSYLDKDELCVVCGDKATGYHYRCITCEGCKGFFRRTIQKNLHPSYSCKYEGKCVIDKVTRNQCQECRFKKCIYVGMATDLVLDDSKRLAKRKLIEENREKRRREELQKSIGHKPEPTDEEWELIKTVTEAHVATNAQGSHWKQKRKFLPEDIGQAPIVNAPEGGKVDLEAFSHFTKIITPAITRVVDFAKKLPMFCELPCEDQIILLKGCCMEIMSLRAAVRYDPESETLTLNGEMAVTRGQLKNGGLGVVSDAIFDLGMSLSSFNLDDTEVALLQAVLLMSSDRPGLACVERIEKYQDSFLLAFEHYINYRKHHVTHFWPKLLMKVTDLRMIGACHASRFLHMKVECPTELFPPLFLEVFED
In short: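 Agonist-mode beta-lactamase reporter assay, HEK 293 cells, 2% charcoal/dextran FBS; cells plated 4 hrs, compound 18 hrs at 37 C, CCF4 2 hrs RT. Normalized to 10 nM T3 (100%) and DMSO (0%); Hill fit gives EC50, efficacy.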

[12] = qHTS assay for small molecule disruptors of the mitochondrial membrane potential - 1 hr assay (AID 651754; calls by dose curve; note: % is set by controls: 0 for no effect and ±100 for the full control effect; nearly all actives have a fitted effect of over 35% in size); details: ratio change, negative = depolarisation: at 92.2 µM (top of the series)
In short: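 HepG2 cells, attached overnight at 37C, were exposed to compound or DMSO vehicle for 1 hr at 37C, 5% CO2, then stained with Mito-MPS dye for 30 min. Red aggregate versus green monomer fluorescence reports membrane potential.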

[13] = biological target: Tumor necrosis factor (Homo sapiens) (UniProt P01375); test: qHTS assay to identify small molecules that stimulate Tumor Necrosis Factor-alpha (TNF-alpha) secretion (AID 651757; active = well fitted curve in the direction sought with a large enough effect in the signal ratio; inconclusive = small, poorly fitted or top-dose-only effect, or a change in a side signal; inactive = no such curve, though single readings can be large or run the other way; the % refers to the signal ratio; note: 0% is about no effect); details: Human cells, HTRF 665/615 ratio; activation (TNF-alpha secretion): at 92.2 µM (top of the series)
Sequence of UniProt P01375 (P01375 whole entry, looked up): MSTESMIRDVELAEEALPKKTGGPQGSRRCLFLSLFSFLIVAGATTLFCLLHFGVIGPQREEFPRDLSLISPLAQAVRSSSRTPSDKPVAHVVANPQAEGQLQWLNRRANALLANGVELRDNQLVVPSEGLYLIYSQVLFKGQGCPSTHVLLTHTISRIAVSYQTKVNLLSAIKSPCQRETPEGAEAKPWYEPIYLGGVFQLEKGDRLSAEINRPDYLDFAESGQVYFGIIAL
In short: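 THP-1 cells were exposed to compounds for 17 hrs at 37 C, after which secreted TNF-alpha was measured by homogeneous HTRF (TR-FRET) using cryptate- and XL665-labeled anti-TNF-alpha antibodies, read after 3 hr at room temperature.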

[14] = qHTS assay to identify small molecules that stimulate interleukin-8 (IL-8) secretion (AID 651758; active = well fitted activation curve with a large enough effect in the signal ratio; inconclusive = small, poorly fitted or top-dose-only effect, or effect the other way, or a change in a side signal; the % refers to the signal ratio; note: 0% is about no effect); details: HTRF ratio (665/615); activation: at 92.2 µM (top of the series)
In short: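 THP-1 cells (2000/well) exposed to compound 16 h at 37 C; secreted IL-8 then detected by HTRF with cryptate- and XL665-labelled anti-IL-8 antibody pair after 1-3 h at room temperature.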

[15] = Cell Viability - HUV-EC-C (AID 542); details: HUV-EC-C endothelial cell viability, qHTS; series mostly up to 92.2 µM; note: % is set by controls: 0 for no effect and ±100 for the full control effect; nearly all actives have a fitted effect of over 35% in size
In short: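 HUV-EC-C normal human vascular endothelial cells, 1000 cells/well, pre-incubated 5 hr at 37 °C, then exposed to compounds for 40 hr at 37 °C in complete medium. Viability measured as intracellular ATP by CellTiter-Glo luminescence; AC50 from Hill fits.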

[16] = Cell Viability - LYMP2-001 (AID 921); details: LYMP2-001 lymphoblastoid cell viability; series mostly up to 92.2 µM;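 note: 0% = DMSO only and full inhibition = tetraoctylammonium bromide control wells; nearly all actives have a fitted effect of over 70% in size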
In short: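 Cellular ATP loss read by luciferase luminescence after 24 h compound exposure at 37 C in complete medium. LYMP2-001 lymphoblastoid cells, 2500/well; qHTS concentration-response data fitted with Hill equation for AC50.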

[17] = Cell Viability - LYMP2-007 (AID 979); details: LYMP2-007 lymphoblastoid cell viability; activity change, negative = cytotoxicity: at 92.2 µM (top of the series);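 note: cells exposed to compound for 24 h before reading; 0% = DMSO only and the negative end = 92 µM tetraoctylammonium bromide; nearly all actives have a fitted effect of over 60% in size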
In short: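 Human lymphoblastoid cells (2500/well) were plated in complete medium, incubated 5 hr at 37 C, then exposed to compounds for 24 hr at 37 C. Intracellular ATP was read by CellTiter-Glo luminescence after 30 min at room temperature; AC50 from Hill fits.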

[18] = Cell Viability - LYMP2-020 (AID 986); details: activity change, negative = viability loss: at 92.2 µM (top of the series);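 note: plate controls were DMSO only for no effect and tetraoctylammonium bromide at 92 µM for full effect; nearly all actives have a fitted effect of over 55% in size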
In short: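 Human lymphoblastoid cells, 2500/well, were pre-incubated 5 hr at 37 C, then exposed to compounds for 24 hr at 37 C in complete medium. Intracellular ATP was read by CellTiter-Glo luminescence, and AC50 was derived by Hill fitting of concentration-response data.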

[19] = biological target: Estrogen receptor (Homo sapiens) (UniProt P03372); test: qHTS assay for small molecule antagonists of estrogen receptor alpha signaling (AID 588513; active = well fitted curve in the direction sought with a large enough effect in the signal ratio, with a control signal flat, not every such curve was filed as active; inconclusive = small, poorly fitted or top-dose-only effect, or effect the other way, or a change in a side signal; inactive = no such curve, though single readings can be large or run the other way; the % refers to the signal ratio; note: % is set by controls: 0 for no effect and ±100 for the full control effect); details: ER-alpha-UAS-bla HEK293, beta-lactamase ratio, antagonist mode; activity, negative = inhibition: at 76.9 µM (top of the series) unless noted
Sequence of UniProt P03372 (P03372 whole entry, looked up): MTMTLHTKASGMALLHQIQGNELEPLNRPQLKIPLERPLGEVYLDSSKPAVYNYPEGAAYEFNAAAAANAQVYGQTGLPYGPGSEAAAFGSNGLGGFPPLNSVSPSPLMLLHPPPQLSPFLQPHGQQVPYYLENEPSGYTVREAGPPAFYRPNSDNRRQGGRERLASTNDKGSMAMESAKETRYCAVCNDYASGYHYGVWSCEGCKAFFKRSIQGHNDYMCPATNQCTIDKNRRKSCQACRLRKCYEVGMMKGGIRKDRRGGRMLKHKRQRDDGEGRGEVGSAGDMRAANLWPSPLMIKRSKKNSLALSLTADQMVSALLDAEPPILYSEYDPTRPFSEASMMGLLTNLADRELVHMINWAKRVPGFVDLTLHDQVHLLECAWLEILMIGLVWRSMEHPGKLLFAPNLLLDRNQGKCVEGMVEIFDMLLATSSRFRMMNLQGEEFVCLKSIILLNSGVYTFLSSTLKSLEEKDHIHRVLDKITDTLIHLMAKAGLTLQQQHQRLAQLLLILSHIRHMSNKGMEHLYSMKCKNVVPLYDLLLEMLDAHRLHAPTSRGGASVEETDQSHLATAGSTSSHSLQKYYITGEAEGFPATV
In short: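 Antagonist mode: inhibition of 0.5 nM 17-beta-estradiol-driven beta-lactamase reporter in HEK 293 ER-alpha-UAS-bla cells, 18 h at 37C, CCF4 readout after 2 h at RT. Normalised to estradiol and DMSO; titration fitted to Hill.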

[20] = biological target: Glucocorticoid receptor (Homo sapiens) (UniProt P04150); test: qHTS assay for small molecule antagonists of glucocorticoid receptor signaling (AID 588533; active = well fitted inhibition curve with a large enough effect in the signal ratio, with a control signal flat, not every such curve was filed as active; inconclusive = small, poorly fitted or top-dose-only effect, or effect the other way, or a change in a side signal; the % refers to the signal ratio;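 note: cells stimulated with 2 nM dexamethasone as agonist; % is set by controls: 0 for no effect and ±100 for the full control effect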); details: HeLa MMTV-bla, GRE beta-lactamase ratio, antagonist mode, 18 h; activity change, negative = inhibition: at 76.8 µM (top of the series)
[21] = biological target: Thyroid hormone receptor beta (Homo sapiens) (UniProt P10828); test: qHTS assay for small molecule antagonists of thyroid hormone receptor beta signaling (AID 588547; active = well fitted inhibition curve with a large enough effect in the signal ratio, with a control signal flat, not every such curve was filed as active; inconclusive = small, poorly fitted or top-dose-only effect, or effect the other way, or a change in a side signal; the % refers to the signal ratio; note: potency is the fitted concentration of half-maximal effect); details: TR-UAS-bla HEK293, beta-lactamase ratio, antagonist mode, 18 h
In short: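 TR-UAS-bla GripTite HEK293 cells in 2% charcoal/dextran FBS medium; compounds 0.59 nM to 92 uM with T3 at 0.4nM final, 18 h at 37 C. Beta-lactamase read by CCF4 fluorescence (460/530 nm); Hill fits gave IC50 and efficacy.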

[22] = MultiTox-Fluor Cytotoxicity Assay - LYMP1-002 - Dead Cells (AID 960); details: LYMP1-002 lymphoblastoid cells, dead-cell protease fluorescence; cytotoxicity (dead cells): at 46.1 µM (top of the series); note: potency is the fitted concentration of half-maximal effect; nearly all actives have a fitted effect of over 60% in size
In short: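 Human lymphoblastoid cells (LYMP1-002), 2500/well in complete medium, were exposed to compounds for 16 hr at 37 C. Dead-cell protease activity was read as bis-AAF-R110 fluorescence (Ex/Em 485/520), normalized to DMSO and 15 uM tetraoctylammonium bromide; AC50 from Hill fits.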

[23] = Cell Viability - LYMP2-022 (AID 987); details: LYMP2-022 lymphoblastoid cell viability; series mostly up to 92.2 µM;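 note: 0% = DMSO alone and full effect = tetraoctylammonium bromide at 92 µM; nearly all actives have a fitted effect of over 55% in size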
In short: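 Human lymphoblastoid cells, 2500/well, preincubated 5 hr at 37 C, then exposed to compounds over a concentration range for 24 hr at 37 C in complete medium. Viability read as intracellular ATP by CellTiter-Glo luminescence after 30 min at room temperature; AC50 from Hill fits.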

[24] = biological target: Androgen receptor (Homo sapiens) (UniProt P10275); test: qHTS assay for small molecule antagonists of androgen receptor signaling (AID 588516; active = well fitted curve in the direction sought with a large enough effect in the signal ratio, with a control signal flat, not every such curve was filed as active; inconclusive = small, poorly fitted or top-dose-only effect, or effect the other way, or a change in a side signal; inactive = no such curve, though single readings can be large or run the other way; the % refers to the signal ratio; note: % is set by controls: 0 for no effect and ±100 for the full control effect); details: AR-UAS-bla HEK293, beta-lactamase ratio, antagonist mode, 16 h; activity change, negative = inhibition: at 76.8 µM (top of the series)
Sequence of UniProt P10275 (P10275 whole entry, looked up): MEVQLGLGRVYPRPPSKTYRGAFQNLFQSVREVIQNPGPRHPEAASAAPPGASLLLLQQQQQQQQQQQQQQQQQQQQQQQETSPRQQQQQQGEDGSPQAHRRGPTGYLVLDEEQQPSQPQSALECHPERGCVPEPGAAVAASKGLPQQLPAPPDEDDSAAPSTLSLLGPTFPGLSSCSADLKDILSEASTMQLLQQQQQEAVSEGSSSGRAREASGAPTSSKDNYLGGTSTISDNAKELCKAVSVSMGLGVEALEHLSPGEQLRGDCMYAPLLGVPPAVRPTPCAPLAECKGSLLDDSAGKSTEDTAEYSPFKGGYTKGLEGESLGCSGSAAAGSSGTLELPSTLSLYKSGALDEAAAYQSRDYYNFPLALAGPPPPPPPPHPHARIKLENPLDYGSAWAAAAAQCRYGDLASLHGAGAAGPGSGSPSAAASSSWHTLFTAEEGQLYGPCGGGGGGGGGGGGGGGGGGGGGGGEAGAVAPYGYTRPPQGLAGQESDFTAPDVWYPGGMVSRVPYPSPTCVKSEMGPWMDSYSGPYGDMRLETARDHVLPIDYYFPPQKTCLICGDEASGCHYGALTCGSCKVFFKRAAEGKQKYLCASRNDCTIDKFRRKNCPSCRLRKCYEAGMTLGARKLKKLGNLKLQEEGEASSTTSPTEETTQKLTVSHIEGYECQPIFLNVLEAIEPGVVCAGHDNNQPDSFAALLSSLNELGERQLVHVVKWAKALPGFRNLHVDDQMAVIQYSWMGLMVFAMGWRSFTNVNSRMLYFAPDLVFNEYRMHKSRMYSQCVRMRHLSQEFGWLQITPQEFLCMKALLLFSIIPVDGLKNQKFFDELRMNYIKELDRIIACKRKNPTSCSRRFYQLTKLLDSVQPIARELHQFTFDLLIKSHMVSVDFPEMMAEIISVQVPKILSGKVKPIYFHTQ
In short: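 Antagonist mode: inhibition of R1881-stimulated (10 nM final) bla reporter in GeneBLAzer AR HEK 293 cells, 16 h at 37C, compounds titrated. IC50 and efficacy from Hill-equation fits of 405/460–530 nm FRET ratios.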

[25] = qHTS assay for small molecule agonists of the antioxidant response element (ARE) signaling pathway measured by Nrf2-dependant transcriptional activity (AID 720636; active = well fitted curve in the direction sought with a large enough effect in the repeat runs; inconclusive = weak or mixed curves; inactive = no such curve, though single readings can be large; an effect the other way counts as inactive or inconclusive; note: % of control where 0% means no effect); details: ARE-luc HepG2, Nrf2 luciferase reporter, 16 h; series mostly up to 92.4 µM
In short: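 Nrf2-dependent transcription read as ONE-Glo luciferase signal from ARE-luc HepG2 reporter cells after 16 hr compound treatment at 37 C, 5% CO2, in assay medium with 1% dialyzed FBS.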

[26] = biological target: Vitamin D3 receptor (Homo sapiens) (UniProt P11473); test: qHTS assay for small molecule antagonists of vitamin D receptor signaling (AID 588541; calls by dose curve;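 note: receptor activated by calcitriol during compound treatment; % is set by controls: 0 for no effect and ±100 for the full control effect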); details: HEK293T VDR-UAS-bla, beta-lactamase ratio, antagonist mode; activity change, negative = inhibition: at 76.7 µM (top of the series)
Sequence of UniProt P11473 (P11473 whole entry, looked up): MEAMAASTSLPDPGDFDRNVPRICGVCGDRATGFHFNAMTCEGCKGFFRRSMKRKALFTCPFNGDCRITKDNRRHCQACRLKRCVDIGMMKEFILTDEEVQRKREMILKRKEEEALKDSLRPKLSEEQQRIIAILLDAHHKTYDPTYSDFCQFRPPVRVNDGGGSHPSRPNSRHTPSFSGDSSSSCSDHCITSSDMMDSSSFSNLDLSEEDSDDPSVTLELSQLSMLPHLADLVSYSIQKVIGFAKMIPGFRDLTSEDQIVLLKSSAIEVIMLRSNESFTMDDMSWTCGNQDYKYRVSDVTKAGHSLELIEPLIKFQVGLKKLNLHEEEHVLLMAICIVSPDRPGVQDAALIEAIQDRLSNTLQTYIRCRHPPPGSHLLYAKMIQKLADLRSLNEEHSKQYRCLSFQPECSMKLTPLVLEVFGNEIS

[27] = biological target: Retinoic acid receptor RXR-alpha (Homo sapiens) (UniProt P19793); test: qHTS assay for small molecule antagonists of retinoid X receptor alpha signaling (AID 588546; active = well fitted inhibition curve with a large enough effect in the signal ratio, with a control signal flat, not every such curve was filed as active; inconclusive = small, poorly fitted or top-dose-only effect, or effect the other way, or a change in a side signal; inactive = no such curve, though single readings can be large or run the other way; the % refers to the signal ratio); details: HEK293T RXRa-UAS-bla, beta-lactamase ratio, antagonist mode
Sequence of UniProt P19793 (P19793 whole entry, looked up): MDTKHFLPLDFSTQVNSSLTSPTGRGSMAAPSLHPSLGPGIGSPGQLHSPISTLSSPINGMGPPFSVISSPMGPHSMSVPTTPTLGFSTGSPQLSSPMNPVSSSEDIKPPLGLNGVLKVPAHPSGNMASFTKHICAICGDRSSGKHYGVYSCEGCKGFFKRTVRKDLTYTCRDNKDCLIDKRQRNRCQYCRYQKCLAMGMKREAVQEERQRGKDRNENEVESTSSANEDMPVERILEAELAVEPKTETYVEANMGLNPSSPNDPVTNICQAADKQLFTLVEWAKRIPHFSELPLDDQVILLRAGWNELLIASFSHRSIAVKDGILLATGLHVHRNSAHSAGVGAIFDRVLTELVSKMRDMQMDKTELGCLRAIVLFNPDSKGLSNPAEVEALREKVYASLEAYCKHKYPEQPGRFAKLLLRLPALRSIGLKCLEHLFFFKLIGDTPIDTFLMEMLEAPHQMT
In short: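 Beta-lactamase reporter inhibition, read as CCF4 fluorescence ratio (ex 405, em 460/530 nm) after 2 h at RT. HEK293T UAS-bla cells, 2500/well, were stimulated with 9-cis-RA at 500 or 100 nM final alongside test compound for 18 h at 37 C.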

[28] = qHTS assay for small molecule agonists of the antioxidant response element (ARE) signaling pathway (AID 651741; active = well fitted activation curve with a large enough effect in the signal ratio; inconclusive = small, poorly fitted or top-dose-only effect, or effect the other way, or a change in a side signal; the % refers to the signal ratio; note: potency is the fitted concentration of half-maximal effect; for activation: % of control where 0% means no effect); details: HepG2 ARE-bla reporter, beta-lactamase FRET ratio, 16 h; activation: at 96 µM (top of the series) unless noted
In short: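 HepG2 ARE-bla cells plated at 2,000 cells/well and incubated 5 h at 37 C/5% CO2 received 23 nL compound in DMSO. After 16 h at 37 C, LiveBLAzer B/G FRET substrate was applied for 2 h at room temperature and fluorescence read.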
Tags give direction and shape of the fitted curve or compound fluorescence and quenching.

CC(C)(C)C(=O)C1C(=O)c2ccccc2C1=O
inconclusive: Potency [1] 74.8 µM [partial curve] | Potency [2] 91.2 µM [partial curve] | Potency [3] 129 µM [partial curve] | Potency [5] 31.6 µM [inhibitor, single point] | Potency [7] 31.6 µM [falling, partial curve] | activation [9] -15.3% | activity, negative = inhibition [10] -44.9% | activation [11] -14% | activation (TNF-alpha secretion) [13] 0.237%
inactive: Potency [8] | Potency [12] | Potency [14]
active: Potency [4] 20.1 µM | activity change, negative = cytotoxicity [6] -83%

Oc1cc(Cl)cc(Cl)c1Cl
inactive: Potency [15] | Potency [16] | Potency [19]
inconclusive: Potency [1] 101 µM [single point] | Potency [2] 92.5 µM [single point] | activity change, negative = cytotoxicity [17] -34.9% [cytotoxic] | activity change, negative = viability loss [18] -37.6% [cytotoxic] | activity change, negative = inhibition [20] -4.62% | activation [9] -14% | activity change % (negative = inhibition) [21] 11% | activation [14] -13.1%

CCO
inactive: Potency [3] > 92 µM | Potency [8] | Potency [23] | Potency [24] | Potency [20] | Potency [9] | Potency [10] | Potency [12] | Potency [14] | Potency [25]
inconclusive: Potency [22] 25.1 µM [cytotoxic, partial curve, poor fit]

O=C(OCc1ccccc1)c1ccccc1O
inactive: Potency [2] > 92 µM | Potency [26] | max response [27] -0.686% and -0.189% | Potency [14]
inconclusive: Potency [5] 31.6 µM [activator, partial curve] | Potency [22] 31.6 µM [cytotoxic, single point] | activity, negative = inhibition [19] 15.5% | activity change, negative = inhibition [20] 8.79% | activation [11] -31.4% | Potency [21] 5.01 µM [side channel, falling, full curve, poor fit] | Potency [28] 47.3 µM [side channel, falling, partial curve, poor fit] | activation [28] 10.2%
